{
  "source": "PubChem BioAssay AID1461",
  "about": "(National Center for Advancing Translational Sciences (NCATS), 2008)",
  "note": "The campaign covered roughly 220,000 compounds. About 2,300 (1%) were called active. Inconclusive results, whose numbers are uncertain, are shown with a selection of clear calls. Calls come from the whole dose curve; as a rule, active = well fitted inhibition curve with a large enough effect; inconclusive = small, poorly fitted or top-dose-only effect, or effect the other way; inactive = no such curve, though single readings can be large or run the other way. No potency is given beside an inconclusive call; the fits are too rough. % is set by controls: 0 for no effect and ±100 for the full control effect; potency is the fitted concentration of half-maximal effect; tags give direction and shape of the fitted curve.",
  "data": [
    {"target": "Neuropeptide S receptor (Homo sapiens) (UniProt Q6W5P4)", "sequence (Q6W5P4 whole entry, looked up)": "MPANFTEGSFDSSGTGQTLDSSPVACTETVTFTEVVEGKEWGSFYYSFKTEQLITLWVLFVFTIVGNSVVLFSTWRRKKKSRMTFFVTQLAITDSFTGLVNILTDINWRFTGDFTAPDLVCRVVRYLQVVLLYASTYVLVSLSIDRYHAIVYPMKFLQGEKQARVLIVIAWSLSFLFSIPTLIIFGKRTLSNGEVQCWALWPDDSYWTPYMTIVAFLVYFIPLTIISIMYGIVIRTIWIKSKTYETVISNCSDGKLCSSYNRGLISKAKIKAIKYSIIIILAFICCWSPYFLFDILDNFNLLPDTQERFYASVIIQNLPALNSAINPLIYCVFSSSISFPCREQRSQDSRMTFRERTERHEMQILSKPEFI", "experiment": "qHTS Assay for Antagonists of the Neuropeptide S Receptor: cAMP Signal Transduction; note: nearly all actives have a fitted effect of over 50% in size", "conditions": "CHO-NPSR cells, cAMP TR-FRET, antagonist mode; activity change, negative = inhibition: at 38.3 µM (top of the series) unless noted", "values": [
      {"smiles": "COC(=O)NCC(c1cccnc1)N1CCN(c2ccccc2OC)CC1", "note": "(stereo not drawn)", "Potency": "inconclusive [inhibitor, single point]"},
      {"smiles": "COc1ccc(OC)c(/C=N/N=C2\\SCC(=O)N2Cc2ccco2)c1", "activity change, negative = inhibition": "inactive: -15.3%"},
      {"smiles": "Cc1ccc(Cl)cc1N1CCN(Cc2cc3c(cc2O)CCC3)CC1", "Potency": "active: 10 µM"},
      {"smiles": "CSc1nccc(-c2sc(SC)c(C#N)c2-c2ccccc2)n1", "Potency": "inconclusive [activator, partial curve]"},
      {"smiles": "O=C(Oc1ccccc1N1CCOCC1)c1sccc1Br", "Potency": "inconclusive [activator, partial curve]"},
      {"smiles": "Cc1nn2c(NCCCN3CCOCC3)c3c(nc2c1-c1ccccc1)CCC3", "Potency": "inconclusive [inhibitor, single point]"},
      {"smiles": "CC(C)N(C(=O)c1ccc(-c2ccccc2F)cc1)C(C)C", "Potency": "inconclusive [activator, partial curve]"},
      {"smiles": "CCCN(CC1CC1)C(=O)COc1ccccc1C(=O)NCc1ccccc1", "Potency": "inconclusive [inhibitor, single point]"},
      {"smiles": "O=S(=O)(c1ccccc1)c1cccc(S(=O)(=O)N2CCCCC2)c1", "Potency": "inconclusive [inhibitor, full curve, poor fit]"},
      {"smiles": "Cc1cccc(NC(=O)CN(c2ccc(F)cc2)S(C)(=O)=O)c1", "Potency": "inconclusive [activator, single point]"},
      {"smiles": "O=c1c2ccccc2nc(/C=C/c2ccc([N+](=O)[O-])o2)n1CCCO", "Potency": "inconclusive [inhibitor, single point]"},
      {"smiles": "COC(=O)C1C(=O)/C(=C/N(C)C)C(=O)CC1(C)C", "note": "(stereo not drawn)", "Potency": "inconclusive [activator, partial curve]"},
      {"smiles": "COC(=O)c1sc(S(=O)(=O)NCC(=O)O)c(C(=O)OC)c1C", "activity change, negative = inhibition": "inactive: -49.2%"},
      {"smiles": "C[N+]1(CC2COC3(CCCCC3)O2)CCCC1", "note": "(stereo not drawn)", "activity change, negative = inhibition": "inactive: 5.39%"},
      {"smiles": "Cc1ccnc(NC(=O)CCC(=O)N(CC(=O)NC2CCCCC2)Cc2ccc3c(c2)OCO3)c1", "activity change, negative = inhibition": "inactive: -15.5% [at 46.1 µM]"},
      {"smiles": "CCOC(=O)Cn1c(=O)oc2cc(S(=O)(=O)N3CCN(c4ccccn4)CC3)ccc21", "activity change, negative = inhibition": "inactive: -0.137% [at 46.1 µM]"},
      {"smiles": "COC(=O)CN1C(=O)C2(OCCCO2)c2ccccc21", "activity change, negative = inhibition": "inactive: -27.8% [at 7.67 µM]"},
      {"smiles": "Cc1cc(/C=C2\\SC(=S)NC2=O)c(C)n1-c1ccc(O)cc1", "Potency": "inconclusive [inhibitor, single point]"},
      {"smiles": "Cc1cc(C)c2c(-n3cccc3)c(NC(=O)OCc3ccccc3)sc2n1", "Potency": "inconclusive [inhibitor, partial curve]"},
      {"smiles": "N#CC1(c2ccccc2)CCCN1C(=O)c1ccc(Br)cc1", "note": "(stereo not drawn)", "Potency": "inconclusive [activator, partial curve]"},
      {"smiles": "CCCCOc1ccc(-c2ncc(N)cn2)cc1", "activity change, negative = inhibition": "inactive: 3.55%"},
      {"smiles": "CCN(CC(N)=O)S(=O)(=O)c1ccc(Br)cc1", "Potency": "inconclusive [inhibitor, single point]"},
      {"smiles": "S=C(Nc1ccc(Cl)cc1)NC1CCN(Cc2ccccc2)CC1", "activity change, negative = inhibition": "inactive: 2.79%"},
      {"smiles": "Cc1cccc2cc(CN(Cc3ccc4c(c3)OCO4)Cc3nnnn3C3CCCC3)c(=O)[nH]c12", "Potency": "active: 12.6 µM"},
      {"smiles": "CC(C)CC(=O)NC(=S)Nc1ccc(N2CCCC2)c(Cl)c1", "Potency": "inconclusive [activator, single point]"},
      {"smiles": "Cc1cc(C)cc(NC(=O)C2CCCC2)c1", "Potency": "inconclusive [activator, partial curve]"},
      {"smiles": "OC(COC(c1ccc(Cl)cc1)c1ccc(Cl)cc1)CN1CCc2ccccc2C1", "note": "(stereo not drawn)", "Potency": "inconclusive [inhibitor, single point]"},
      {"smiles": "CC(=O)c1sc(NC(=O)c2cccc(C)c2)nc1C", "activity change, negative = inhibition": "inactive: -17.1%"},
      {"smiles": "Cc1ccc(-n2ncc3c(=O)n(CC(=O)Nc4cccc(Cl)c4)cnc32)cc1C", "Potency": "inconclusive [inhibitor, single point]"},
      {"smiles": "CCS(=O)(=O)N1CCN(c2ccc([N+](=O)[O-])c(NC(C)c3ccccc3)c2)CC1", "note": "(stereo not drawn)", "Potency": "inconclusive [inhibitor, partial curve]"},
      {"smiles": "O=C(/C=C/c1cccc(F)c1)c1ccc(N2CCOCC2)cc1", "Potency": "inconclusive [activator, single point]"},
      {"smiles": "COc1ccc(C(=O)c2coc3ccc(O)c(CN4CCCCC4)c23)cc1", "Potency": "inconclusive [inhibitor, single point]"},
      {"smiles": "CCOC(=O)C1CCCN(C(=O)c2cnn3c(C(F)F)cc(-c4ccc(C)cc4)nc23)C1", "note": "(stereo not drawn)", "Potency": "inconclusive [inhibitor, partial curve]"},
      {"smiles": "COC(=O)c1cc(NC(=O)Nc2ccccc2OC)cc(C(=O)OC)c1", "Potency": "inconclusive [inhibitor, full curve, poor fit]"},
      {"smiles": "COC(=O)c1sc(N2C(=O)C(O)=C(C(=O)c3ccc(C)o3)C2c2ccc(F)cc2)nc1C", "note": "(stereo not drawn)", "activity change, negative = inhibition": "inactive: 22.4% [at 46.1 µM]"},
      {"smiles": "CC(C)c1ccc(/C=C2\\Oc3c(ccc(O)c3CN3CCN(C)CC3)C2=O)cc1", "Potency": "active: 10 µM"},
      {"smiles": "Cc1nc(-c2cccc(S(=O)(=O)N3CCCCCC3)c2)cs1", "Potency": "inconclusive [inhibitor, single point]"},
      {"smiles": "CC(C)CN(CC(C)C)S(=O)(=O)N1CCC(C(=O)NCc2ccc(F)cc2)CC1", "Potency": "inconclusive [inhibitor, single point]"},
      {"smiles": "Cc1ccc(/C=C2/NC(=O)N(c3ccccc3)C2=O)o1", "Potency": "inconclusive [inhibitor, single point]"},
      {"smiles": "CCOc1cc(NS(=O)(=O)c2ccccc2)c(OCC)cc1NC(=O)c1ccco1", "Potency": "inconclusive [inhibitor, single point]"},
      {"smiles": "CC(C)(C)C(=O)NCCCc1nc2ccccc2n1CCCOc1ccc(Cl)cc1", "Potency": "inconclusive [inhibitor, single point]"},
      {"smiles": "CCOc1ccc(S(=O)(=O)Nc2ccc(F)cc2)c(C)c1C", "Potency": "inconclusive [inhibitor, single point]"},
      {"smiles": "CN(C)NC(=S)Nc1ccc(S(=O)(=O)N2CCCCC2)cc1", "activity change, negative = inhibition": "inactive: -18.9%"},
      {"smiles": "C(=N\\n1cnnc1)/c1cn(-c2cccs2)nc1-c1ccccc1", "Potency": "inconclusive [inhibitor, partial curve, poor fit]"},
      {"smiles": "COc1cccc(C(c2nnnn2Cc2ccccc2)N2CCN(C3CCCC3)CC2)c1OC", "note": "(stereo not drawn)", "Potency": "inconclusive [inhibitor, single point]"},
      {"smiles": "CC(C)C(NC(=O)COc1ccc2ccccc2c1)C(=O)N/N=C/C=C/c1ccccc1", "note": "(stereo not drawn)", "Potency": "inconclusive [inhibitor, single point]"},
      {"smiles": "Cc1cccc(N(C(=O)C(F)(F)F)C(C(=O)NC2CCCCC2)c2cccs2)c1", "note": "(stereo not drawn)", "activity change, negative = inhibition": "inactive: -21.7% [at 46.1 µM]"},
      {"smiles": "Cc1cc(/C=N/Nc2ccc([N+](=O)[O-])cn2)c(C)n1-c1ccc(C(=O)O)cc1", "Potency": "inconclusive [inhibitor, single point]"},
      {"smiles": "Cc1oc(=O)c(NC(=O)c2ccc(Cl)cc2)cc1C(=O)c1ccccc1", "Potency": "inconclusive [inhibitor, partial curve]"},
      {"smiles": "O=C(NC(NCc1cccnc1)C(Cl)(Cl)Cl)c1cccc2ccccc12", "note": "(stereo not drawn)", "activity change, negative = inhibition": "inactive: 7.49%"},
      {"smiles": "Cc1ccc(C(=O)N2CCN(C3c4cccc5cccc(c45)C3NS(=O)(=O)c3ccccc3)CC2)cc1", "note": "(stereo not drawn)", "Potency": "inconclusive [inhibitor, partial curve, poor fit]"},
      {"smiles": "Cc1ccc(S(=O)(=O)Cn2nnnc2CN2CCCC3(CCCCC3)C2)cc1", "Potency": "inconclusive [inhibitor, single point]"},
      {"smiles": "Cn1nc(C(F)(F)F)c(/C=N/OC(=O)c2ccccc2)c1Sc1ccc(Cl)cc1", "Potency": "inconclusive [inhibitor, single point]"},
      {"smiles": "Cc1ccc(C(=O)CSc2nc3cc(S(=O)(=O)N4CCOCC4)ccc3o2)cc1", "activity change, negative = inhibition": "inactive: 8.51% [at 7.67 µM]"},
      {"smiles": "CCS(=O)(=O)N1CCN(C2Cc3ccccc3C2)CC1", "Potency": "inconclusive [inhibitor, single point]"},
      {"smiles": "CCC1CCCCN1C(=O)CSc1nnc(-c2ccc(Cl)s2)o1", "note": "(stereo not drawn)", "Potency": "inconclusive [inhibitor, partial curve, poor fit]"},
      {"smiles": "C=CCOc1cccc(C2C(C(=O)c3ccc(C)o3)=C(O)C(=O)N2c2nccs2)c1", "note": "(stereo not drawn)", "Potency": "active: 5.01 µM"},
      {"smiles": "Cc1ccc(-c2ccnc3nc(Sc4ncc(C(F)(F)F)cc4Cl)nn23)cc1", "Potency": "inconclusive [inhibitor, single point]"},
      {"smiles": "Cc1cccc(N2C(=O)CC(Sc3ccccc3C(=O)O)C2=O)c1", "note": "(stereo not drawn)", "activity change, negative = inhibition": "inactive: 26.1%"},
      {"smiles": "C=CCn1c(N)c(C(=O)Nc2ccc(C)c(C)c2)c2nc3ccccc3nc21", "Potency": "inconclusive [inhibitor, single point]"},
      {"smiles": "Cc1ccc(C(=O)CC(=O)c2cccc(F)c2)c(O)c1", "Potency": "inconclusive [inhibitor, partial curve, poor fit]"},
      {"smiles": "CCc1ccc(-c2nc(CN3CCCC(C(=O)O)C3)c(C)o2)cc1", "note": "(stereo not drawn)", "Potency": "inconclusive [inhibitor, single point]"},
      {"smiles": "Cc1cc(N/N=C/c2ccc(O)c(C)c2O)nc(-c2ccccc2O)n1", "Potency": "inconclusive [inhibitor, single point]"},
      {"smiles": "Cc1nonc1NC(=O)CSc1nc2cc(Cl)ccc2c2c1CCCC2", "Potency": "inconclusive [inhibitor, single point]"},
      {"smiles": "CCc1ccccc1Nc1ccc(C(=O)O)cc1N", "activity change, negative = inhibition": "inactive: -24.9% [at 46.1 µM]"},
      {"smiles": "Cc1ccc2cc(CN(Cc3ccc4c(c3)OCO4)Cc3nnnn3Cc3ccco3)c(=O)[nH]c2c1C", "Potency": "inconclusive [inhibitor, partial curve]"},
      {"smiles": "Cc1ccc(C(=O)C(OC(=O)CNS(=O)(=O)c2ccccc2)c2ccccc2)cc1", "note": "(stereo not drawn)", "Potency": "inconclusive [inhibitor, single point]"},
      {"smiles": "O=C(O)C(Cc1ccccc1)n1cccc1", "note": "(stereo not drawn)", "Potency": "inconclusive [inhibitor, single point]"}
    ]}
  ]
}
